Measurements: PubChem BioAssay AID624255 (Broad Institute, 2012)
In all, about 77,000 compounds went through this assay and about 4,600 (6%) were called active. The inconclusive results got no clear call from the source; some entries with a clear call stand among them for comparison.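 How the source made its calls: active means mean inhibition above about 93%, with at least 55% of replicates each passing it (limit read from the data, passing the limit was not always enough); inconclusive means only one of those two conditions holds; inactive means neither condition holds.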 A structure can be active in one record and inactive in another.

Assay: T. cruzi intracellular proliferation inhibitors, primary screen, cell-based, beta-gal Tulahuen parasites, NIH3T3 host, luminescence (AID 624255)
Details: T. cruzi beta-gal in NIH3T3, GalScreen luminescence, 90 h; at 8.34 µM; hits give high values

Compound	inhibition
CCc1cnc(N2[C@H](CO)[C@@H](c3ccc(C#CC(C)C)cc3)[C@@H]2C#N)s1	active: 98.9%
C[C@@H]1CCCCO[C@@H](CN(C)Cc2ccccc2)[C@H](C)CN([C@H](C)CO)C(=O)c2cc(NC(=O)c3ccncc3)ccc2O1	inconclusive: 97%
COc1ccccc1CN1[C@H](CO)[C@@H]2c3ccccc3N(C(=O)c3ccncc3)C[C@@H]21	inactive: 54.9%
Cc1noc(C)c1S(=O)(=O)Nc1cccc2c1O[C@H](CN(C)Cc1ccncc1)[C@H](C)CN([C@@H](C)CO)C2=O	inactive: 14.6%
C[C@H](CO)N1C[C@H](C)[C@H](CN(C)Cc2ccccc2)OCCCC[C@H](C)Oc2ccc(NC(=O)Nc3ccc(F)cc3)cc2C1=O	inconclusive: 95.5%
Cc1noc(C)c1NC(=O)N(C)C[C@@H]1OCCCC[C@@H](C)Oc2ccc(NC(=O)Nc3ccc(C(F)(F)F)cc3)cc2C(=O)N([C@H](C)CO)C[C@H]1C	inactive: 82.7%
COc1cccc(-c2ccc([C@H]3[C@H](CO)N4CCCCN(Cc5cncnc5)C[C@@H]34)cc2)c1	inactive: 89.4%
COc1ccc(S(=O)(=O)N(C)C[C@H]2Oc3ccc(NC(=O)Cn4cnnn4)cc3C(=O)N([C@@H](C)CO)C[C@H]2C)cc1	active: 99.9%
C[C@H](CO)N1C[C@H](C)[C@H](CN(C)S(=O)(=O)c2ccccc2)OCCCC[C@H](C)Oc2ccc(NC(=O)Nc3cccc4ccccc34)cc2C1=O	inactive: 90.2%
C[C@@H]1CN([C@@H](C)CO)S(=O)(=O)c2ccc(C#CC3CCCCC3)cc2O[C@H]1CN(C)C(=O)Cc1ccncc1	inconclusive: 95.6%
C[C@@H]1CN([C@H](C)CO)C(=O)c2cccc(NC(=O)c3cnccn3)c2O[C@@H]1CN(C)Cc1ccc(C(=O)Nc2ccccc2N)cc1	active: 109%
C[C@@H]1CCCCO[C@@H](CN(C)S(=O)(=O)c2ccc(Cl)cc2)[C@@H](C)CN([C@@H](C)CO)C(=O)c2cc(NC(=O)Nc3ccc(F)cc3)ccc2O1	inactive: 92.4%
C/C=C/c1ccc2c(c1)O[C@@H](CN(C)C(=O)c1cccc(F)c1)[C@@H](C)CN([C@@H](C)CO)S2(=O)=O	inconclusive: 96.5%
C[C@H](CO)N1C[C@H](C)[C@@H](CN(C)Cc2ccc(Oc3ccccc3)cc2)Oc2c(NC(=O)c3ccc(-c4nccs4)cc3)cccc2C1=O	inconclusive: 90.2%
O=S(=O)(c1cccc(F)c1)N1CC[C@@H]2[C@@H](CO)Nc3ccc(C#Cc4ccccc4F)cc3[C@@H]21	inconclusive: 97.6%
COc1ccc(C#Cc2cnc3c(c2)C(=O)N([C@H](C)CO)C[C@@H](C)[C@@H](CN(C)C(=O)Nc2cccc(OC)c2)O3)cc1	inconclusive: 84.2%
C[C@@H]1CN([C@@H](C)CO)C(=O)c2cc(N(C)C)ccc2O[C@@H](C)CCCCO[C@@H]1CN(C)Cc1ccc2c(c1)OCO2	active: 101%
Cc1noc(C)c1S(=O)(=O)Nc1ccc2c(c1)C(=O)N([C@@H](C)CO)C[C@@H](C)[C@@H](CN(C)C(=O)NC1CCCCC1)OCCCC[C@H](C)O2	inactive: -21.8%

Compound	inhibition
C[C@H](C(=O)N(C)C[C@@H]1OCc2ccccc2-c2ccccc2C(=O)N([C@@H](C)CO)C[C@@H]1C)c1ccccc1	inactive: -38.3%
CO[C@H]1CN(C)C(=O)c2cc(NC(=O)c3ccc4c(c3)OCO4)ccc2OC[C@@H](C)N(CC2CC2)C[C@H]1C	inactive: -29.4%
C[C@@H]1CCCCO[C@H](CN(C)C(=O)Nc2ccc(C(F)(F)F)cc2)[C@@H](C)CN([C@H](C)CO)C(=O)c2cc(NC(=O)Nc3ccc(F)cc3)ccc2O1	inconclusive: 115%
OC[C@H]1Nc2ccc(-c3ccccc3)cc2[C@H]2[C@@H]1CCN2Cc1ccc(F)cc1	active: 104%
C[C@H](CO)N1C[C@H](C)[C@H](CN(C)C(=O)C2CC2)Oc2cc(C#Cc3ccncc3)ccc2S1(=O)=O	active: 105%
CC(C)C#Cc1ccc2c(c1)O[C@H](CN(C)C(=O)c1cccc(F)c1)[C@@H](C)CN([C@H](C)CO)S2(=O)=O	inconclusive: 95.5%
C[C@H](CO)N1C[C@H](C)[C@H](CN(C)Cc2cccc(F)c2)Oc2cc(-c3ccccc3)ccc2S1(=O)=O	active: 120%
Cc1ccc(S(=O)(=O)N(C)C[C@@H]2Oc3ncc(C#CCC(C)C)cc3C(=O)N([C@H](C)CO)C[C@H]2C)cc1	inconclusive: 95.7%
O=C(C[C@H]1CC[C@@H]2[C@H](COC[C@@H](O)CN2Cc2ccc3c(c2)OCO3)O1)N1CCOCC1	inactive: -19.5%
COc1cccc(NC(=O)N[C@H]2CC[C@@H](CC(=O)Nc3ccc(-c4ccccc4)cc3)O[C@@H]2CO)c1	inactive: 25.7%
C[C@@H]1CN([C@H](C)CO)C(=O)c2cc(C#CC3CCCCC3)cnc2O[C@@H]1CN(C)S(=O)(=O)c1ccccc1	inconclusive: 103%
O=C(C[C@@H]1C[C@@H]2c3cc(NC(=O)C4CCC4)ccc3O[C@@H]2[C@@H](CO)O1)NCc1cccc(F)c1	inactive: -28.8%
C[C@@H]1CN([C@@H](C)CO)C(=O)c2cc(C3=CCCC3)cnc2O[C@@H]1CN(C)Cc1cccc(F)c1	inconclusive: 114%
Cn1cnc(S(=O)(=O)N2C[C@@H](O)COC[C@@H]3O[C@@H](CC(=O)N4CCN(c5ccccc5)CC4)CC[C@H]32)c1	inactive: -87.3%
O=C(C[C@H]1CC[C@H]2[C@@H](COC[C@H](O)CN2CC2CCCCC2)O1)NCc1ccc(F)cc1	inactive: 56.5%
COc1ccc(NC(=O)N(C)C[C@H]2OCCCC[C@H](C)Oc3ccc(NC(=O)Nc4ccc(C(F)(F)F)cc4)cc3C(=O)N([C@H](C)CO)C[C@@H]2C)cc1	inconclusive: 106%
C[C@@H]1CN([C@H](C)CO)S(=O)(=O)c2ccc(C3=CCCC3)cc2O[C@@H]1CN(C)CC1CCCCC1	inactive: 0.427%
C[C@H](CO)N1C[C@H](C)[C@H](CN(C)Cc2ccc(F)cc2)Oc2ncc(C#Cc3ccccc3)cc2C1=O	inconclusive: 95.9%
